# Reference: the supplement of paper PMC8728848
# The other results are listed elsewhere or left out.
# B1: Dectin2 (Homo sapiens), Q6EIG7 (protein)
# chain: MMQEQQPQSTEKRGWLSLRLWSVAGISIALLSACFIVSCVVTYHFTYGETGKRLSELHSYHSSLTCFSEGTKVPAWGCCPASWKSFGSSCYFISSEEKVWSKSEQNCVEMGAHLVVFNTEAEQNFIVQQLNESFSYFLGLSDPQGNNNWQWIDKTPYEKNVRFWHLGEPNHSAEQCASIVFWKPTGWGWNDVICETRRNSICEMNKIYL
# How the values were obtained:
# Assay in all cases: glycan array binding signal (z-score within array); higher = stronger binding
# Details in all cases: glycan notation: IUPAC condensed, linker removed
# [1] = target: Gal(a1-3)Gal
# In short: (§1)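 Negative Z-scores can be read as non-binding. The Z-score is calculated within each array and then averaged across arrays of one protein sequence at different concentrations or buffers and across linkers. Arrays, 3228 in all, were curated from the Consortium for Functional Glycomics database and kept only where the protein sequence was available.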
# [2] = target: Gal(a1-3)Gal(b1-3)GlcNAc
# In short: as §1
# [3] = target: Gal(a1-3)Gal(b1-3)GlcNAc(b1-2)Man
# In short: as §1
# [4] = target: Gal(a1-3)Gal(b1-3)GlcNAc(b1-2)Man(a1-3)[Gal(a1-3)Gal(b1-3)GlcNAc(b1-2)Man(a1-6)]Man(b1-4)GlcNAc(b1-4)GlcNAc
# In short: as §1
# [5] = target: Gal(a1-3)Gal(b1-3)GlcNAc(b1-3)GalNAc
# In short: as §1
# [6] = target: Gal(a1-3)Gal(b1-3)GlcNAc(b1-6)GalNAc
# In short: as §1
# [7] = target: Gal(a1-3)Gal(b1-3)[Fuc(a1-4)]GlcNAc(b1-2)Man(a1-3)[Gal(a1-3)Gal(b1-3)[Fuc(a1-4)]GlcNAc(b1-2)Man(a1-6)]Man(b1-4)GlcNAc(b1-4)GlcNAc
# In short: as §1
# [8] = target: Gal(a1-3)Gal(b1-4)Glc
# In short: as §1
# [9] = target: Gal(a1-3)Gal(b1-4)GlcNAc
# In short: as §1
# [10] = target: Gal(a1-3)Gal(b1-4)GlcNAc(b1-2)Man
# In short: as §1
# [11] = target: Gal(a1-3)Gal(b1-4)GlcNAc(b1-2)Man(a1-3)[Gal(a1-3)Gal(b1-4)GlcNAc(b1-2)Man(a1-6)]Man(b1-4)GlcNAc(b1-4)GlcNAc
# In short: as §1
# [12] = target: Gal(a1-3)Gal(b1-4)GlcNAc(b1-3)GalNAc
# In short: as §1
# [13] = target: Gal(a1-3)Gal(b1-4)GlcNAc(b1-6)GalNAc
# In short: as §1
# [14] = target: Gal(a1-3)Gal(b1-4)[Fuc(a1-3)]GlcNAc
# In short: as §1
# [15] = target: Gal(a1-3)Gal(b1-4)[Fuc(a1-3)]GlcNAc(b1-2)Man(a1-3)[Gal(a1-3)Gal(b1-4)[Fuc(a1-3)]GlcNAc(b1-2)Man(a1-6)]Man(b1-4)GlcNAc(b1-4)GlcNAc
# In short: as §1
# [16] = target: Gal(a1-3)GalNAc
# In short: as §1
# [17] = target: Gal(a1-3)[Gal(a1-4)]Gal(b1-4)GlcNAc
# In short: as §1
# [18] = target: Gal(a1-4)Gal(b1-3)GlcNAc(b1-2)Man(a1-3)[Gal(a1-4)Gal(b1-3)GlcNAc(b1-2)Man(a1-6)]Man(b1-4)GlcNAc(b1-4)GlcNAc
# In short: as §1
# [19] = target: Gal(a1-4)Gal(b1-4)Glc
# In short: as §1
# [20] = target: Gal(a1-4)Gal(b1-4)GlcNAc
# In short: as §1
# [21] = target: Gal(a1-4)Gal(b1-4)GlcNAc(b1-2)Man(a1-3)[Gal(a1-4)Gal(b1-4)GlcNAc(b1-2)Man(a1-6)]Man(b1-4)GlcNAc(b1-4)GlcNAc
# In short: as §1
# [22] = target: Gal(a1-4)Gal(b1-4)GlcNAc(b1-3)Gal(b1-4)Glc
# In short: as §1
# [23] = target: Gal(a1-4)GlcNAc
# In short: as §1
# [24] = target: Gal(a1-6)Glc
# In short: as §1
# [25] = target: Gal(b1-2)Gal
# In short: as §1
# [26] = target: Gal(b1-3)Gal
# In short: as §1
# [27] = target: Gal(b1-3)Gal(b1-4)GlcNAc
# In short: as §1
# [28] = target: Gal(b1-3)GalNAc
# In short: as §1
# [29] = target: Gal(b1-3)GalNAc(a1-3)[Fuc(a1-2)]Gal(b1-4)Glc
# In short: as §1
# [30] = target: Gal(b1-3)GalNAc(a1-3)[Fuc(a1-2)]Gal(b1-4)GlcNAc
# In short: as §1
# [31] = target: Gal(b1-3)GalNAc(b1-3)Gal
# In short: as §1
# [32] = target: Gal(b1-3)GalNAc(b1-3)Gal(a1-4)Gal(b1-4)Glc
# In short: as §1
# [33] = target: Gal(b1-3)GalNAc(b1-4)Gal(b1-4)Glc
# In short: as §1
# [34] = target: Gal(b1-3)GalNAc(b1-4)[Neu5Ac(a2-3)]Gal(b1-4)Glc
# In short: as §1
# [35] = target: Gal(b1-3)GlcNAc
# In short: as §1
# [36] = target: Gal(b1-3)GlcNAc(a1-3)Gal(b1-4)GlcNAc
# In short: as §1
# [37] = target: Gal(b1-3)GlcNAc(a1-6)Gal(b1-4)GlcNAc
# In short: as §1
# [38] = target: Gal(b1-3)GlcNAc(b1-2)Man
# In short: as §1
binder,measurement,setting,value
B1,glycan array binding signal (z-score),[1],-0.131
same,glycan array binding signal (z-score),[2],-0.118
same,glycan array binding signal (z-score),[3],-0.168
same,glycan array binding signal (z-score),[4],0.119
same,glycan array binding signal (z-score),[5],-0.191
same,glycan array binding signal (z-score),[6],-0.188
same,glycan array binding signal (z-score),[7],0.523
same,glycan array binding signal (z-score),[8],-0.153
same,glycan array binding signal (z-score),[9],-0.188
same,glycan array binding signal (z-score),[10],-0.15
same,glycan array binding signal (z-score),[11],-0.094
same,glycan array binding signal (z-score),[12],-0.21
same,glycan array binding signal (z-score),[13],-0.188
same,glycan array binding signal (z-score),[14],-0.135
same,glycan array binding signal (z-score),[15],0.151
same,glycan array binding signal (z-score),[16],-0.124
same,glycan array binding signal (z-score),[17],-0.202
same,glycan array binding signal (z-score),[18],-0.112
same,glycan array binding signal (z-score),[19],-0.139
same,glycan array binding signal (z-score),[20],-0.141
same,glycan array binding signal (z-score),[21],-0.02
same,glycan array binding signal (z-score),[22],-0.164
same,glycan array binding signal (z-score),[23],-0.152
same,glycan array binding signal (z-score),[24],-0.105
same,glycan array binding signal (z-score),[25],-0.153
same,glycan array binding signal (z-score),[26],-0.111
same,glycan array binding signal (z-score),[27],-0.196
same,glycan array binding signal (z-score),[28],-0.148
same,glycan array binding signal (z-score),[29],-0.194
same,glycan array binding signal (z-score),[30],-0.21
same,glycan array binding signal (z-score),[31],-0.163
same,glycan array binding signal (z-score),[32],-0.183
same,glycan array binding signal (z-score),[33],-0.134
same,glycan array binding signal (z-score),[34],-0.198
same,glycan array binding signal (z-score),[35],-0.105
same,glycan array binding signal (z-score),[36],-0.186
same,glycan array binding signal (z-score),[37],-0.206
same,glycan array binding signal (z-score),[38],0.191
